# The campaign covered roughly 310,000 compounds. About 14,000 (4.5%) showed an effect of 50% or more. Effects have a minus sign here. Some of the results follow.
# Target: human ether-à-go-go-related gene (hERG) potassium channel (human, UniProt Q12809)
# Assay: primary screen, population patch clamp on CHO cells stably expressing hERG
# 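Further: peak tail current of the secondary pulse compared with the same well before compound.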
# Sequence of human ether-à-go-go-related gene (hERG) potassium channel (Q12809 whole entry, looked up): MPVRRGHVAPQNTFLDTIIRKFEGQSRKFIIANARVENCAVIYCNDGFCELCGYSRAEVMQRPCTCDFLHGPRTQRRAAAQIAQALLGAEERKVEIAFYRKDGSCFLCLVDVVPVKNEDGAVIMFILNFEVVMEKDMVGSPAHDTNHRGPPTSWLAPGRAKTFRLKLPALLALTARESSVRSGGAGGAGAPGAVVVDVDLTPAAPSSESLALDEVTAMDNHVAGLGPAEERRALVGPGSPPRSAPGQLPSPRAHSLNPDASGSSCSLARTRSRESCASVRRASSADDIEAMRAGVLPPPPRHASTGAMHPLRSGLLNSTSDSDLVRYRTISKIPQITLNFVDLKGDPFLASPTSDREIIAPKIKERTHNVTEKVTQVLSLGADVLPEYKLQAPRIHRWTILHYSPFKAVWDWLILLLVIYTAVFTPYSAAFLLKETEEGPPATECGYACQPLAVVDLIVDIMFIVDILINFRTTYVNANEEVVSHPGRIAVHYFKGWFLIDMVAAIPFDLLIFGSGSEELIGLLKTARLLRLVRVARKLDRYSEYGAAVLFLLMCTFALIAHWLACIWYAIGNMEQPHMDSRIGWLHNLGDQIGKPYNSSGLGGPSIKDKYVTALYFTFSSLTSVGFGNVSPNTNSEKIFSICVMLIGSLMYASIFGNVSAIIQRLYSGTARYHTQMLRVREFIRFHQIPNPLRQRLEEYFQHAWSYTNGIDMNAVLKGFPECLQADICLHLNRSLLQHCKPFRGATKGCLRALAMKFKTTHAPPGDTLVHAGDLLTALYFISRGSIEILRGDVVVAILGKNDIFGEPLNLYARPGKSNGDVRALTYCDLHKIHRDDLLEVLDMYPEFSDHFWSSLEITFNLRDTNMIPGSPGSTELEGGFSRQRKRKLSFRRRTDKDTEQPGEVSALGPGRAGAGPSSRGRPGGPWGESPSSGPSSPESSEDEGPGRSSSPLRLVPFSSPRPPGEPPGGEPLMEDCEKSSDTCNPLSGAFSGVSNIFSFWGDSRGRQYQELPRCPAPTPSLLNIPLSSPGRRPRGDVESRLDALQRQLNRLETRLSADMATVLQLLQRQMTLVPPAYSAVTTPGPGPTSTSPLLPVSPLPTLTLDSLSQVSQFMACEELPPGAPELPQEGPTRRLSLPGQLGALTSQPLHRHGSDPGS
row,SMILES,"hERG current change (%, negative = inhibition) at 10uM [%]"
1,O=C1C(C=NCCCN2CCCC2=O)=C(O)c2ccccc21,12.1
2,CN(C)C(=O)C(OC(=O)c1ccc2c(c1)CCCC2)c1ccccc1 (centres unmarked),-4.36
3,CCOc1cc2[nH]c(=S)n(C(C)C)c(=O)c2cc1OCC,-1.9
4,Cc1ccc(NCC(=O)c2ccc([N+](=O)[O-])cc2)cc1,-32.5
5,O=C(O)/C=C/C(=O)c1c(-c2ccccc2)[nH]c2ccccc12,19.7
6,O=C(Nc1ncc(Cc2ccc(SC(F)F)cc2)s1)c1ccccc1,8.52
7,CCc1ccccc1NC(=O)C/C(C)=N/NC(=O)COc1ccccc1C,9.02
8,COc1cccc(NC(=O)C(=O)N/N=C/c2ccc3c(c2)OCO3)c1,6.94
9,COC(=O)c1c(-c2ccc(OC)cc2)oc2ccc(-c3ccc(OC)nc3)cc12,10.4
10,NS(=O)(=O)c1ccc(CNC(=O)c2cc(=O)c3cc(Cl)ccc3o2)cc1,10.9
11,Cc1cc(NC(=O)c2cc(C(C)(C)C)oc2C)no1,11.7
12,COc1ccc(CCNC(=O)c2c(C)nn(CC(C)C)c2Cl)cc1,12
13,CC(C)CN(CC(C)C)C(=O)C12CCC(C)(C(=O)C1)C2(C)C (centres unmarked),-0.0273
14,Clc1cccc2sc(N3CCCCC3)nc12,10.5
15,CCOC(=O)N1CCC(NC(=O)c2oc3c(C)c(C)ccc3c2C)CC1,-32.2
16,CCn1c(/C=C/c2ccccc2F)nc2ccccc2c1=O,14.6
17,CCOC(=O)NCc1cc(-c2nn(C)c(=O)c3ccccc23)ccc1C,-12.9
18,COc1ccc(Oc2nc3c(C)cccn3c(=O)c2/C=C(\C#N)C(N)=O)cc1,-2.18
19,CCn1cc(C(=O)N2CCCC(C(=O)c3ccc4ccccc4c3)C2)cn1 (centres unmarked),-18.1
20,Cc1sc2ncnc(N3CCC(C(=O)Nc4ccc(F)cc4Cl)CC3)c2c1C,-34
21,Cc1cc(C(=O)CCC(=O)N2CCN(S(=O)(=O)c3ccccc3)CC2)c(C)s1,-27.3
22,Cc1ccc(-c2nc(CN3CCN(c4cnccn4)CC3)c(C)o2)o1,1.87
23,Cc1cccc(OCC(=O)Nc2ccc3oc(=O)ccc3c2)c1,8.55

row,SMILES,"hERG current change (%, negative = inhibition) at 10uM [%]"
1,O=C1OCCN/C1=C\C(=O)c1ccc(Cl)cc1,14.5
2,O=C(NC1CCCC1)c1cc(S(=O)(=O)N2CCCC2)ccc1Cl,2.51
3,O=C(c1cccc(F)c1)N1CCCC(C(=O)N2CCCCCC2)C1 (centres unmarked),11.2
4,CCN(Cc1ccccc1)C(=O)Cn1c(=O)n(CC(=O)NCc2ccco2)c(=O)c2sccc21,-15
5,CCCCC(=O)Nc1cccc(NC(=O)c2ccc3c(c2)OCO3)c1,6.43
6,Cc1ccc(NC(=O)c2cc(NC(=O)c3ccccc3C(=O)O)ccc2N2CCCCC2)cc1,32.8
7,COc1ccc(C(=O)Nc2ccc(NC(=O)c3ccccc3)cc2)cc1S(=O)(=O)N1CCOCC1,16.6
8,C=CCn1c(=O)c2ccc(C(=O)NCc3ccccc3)cc2n(Cc2ccc(Cl)cc2)c1=O,16.1
9,O=C(CCn1cccc1)NCc1ccc(Cl)cc1,0.828
10,CC1Cc2ccccc2N1C(=O)COC(=O)Cc1ccc(F)cc1 (centres unmarked),-13.9
11,Cc1nnn(-c2nonc2N)c1C(=O)N/N=C/c1cccc2ccccc12,-7.26
12,COc1ccc(/C(C)=N/NC(=O)c2ccccc2N)cc1,-6.35
13,COc1ccnc(CSC(N)=Nc2cccc(C(F)(F)F)c2)c1,-12.5
14,Br.O=C(CN(Cc1ccccc1)C1=NCCS1)c1ccccc1,-28.5
15,O=C(COC(=O)c1ccccc1)Nc1cccc(S(=O)(=O)NC2=NCCCCC2)c1,10.4
16,CN(C)CCCNCCCNC(=O)/C(=N\O)c1ccccc1,6.64
17,CCN(CC)S(=O)(=O)c1cc(NC(=O)c2cc(-c3ccccn3)nc3ccccc23)ccc1C,22.1
18,O=C(c1cn(-c2ccccc2)nc1-c1ccncc1)N1CCCCC1,-16.6
19,Cc1ccccc1C(=O)NCCNC(=O)c1cnccn1,-1.72
20,c1ccc(-c2nnnn2CCOCCn2nnnc2-c2ccccc2)cc1,2.32
21,O=C1CNC(=O)N1CC(=O)N1CCCc2ccccc21,2.53
22,Cc1nc(NN)c2c3c(sc2n1)COC(C)(C)C3,15.3
23,CC(OC(=O)CCc1cc(C(C)(C)C)c(O)c(C(C)(C)C)c1)C(=O)NC1CC1 (centres unmarked),-33.9

row,SMILES,"hERG current change (%, negative = inhibition) at 10uM [%]"
1,NC(=O)CSc1nnc(-c2cnccn2)n1Cc1ccco1,7.06
2,CCOc1ccc(S(=O)(=O)N(CC(=O)NCc2cccnc2)c2ccc(C)cc2)cc1,-66.9
3,O=C(Cc1ccc2c(c1)OCCO2)N1CCN(S(=O)(=O)c2ccccc2C(F)(F)F)CC1,-18.1
4,CCN=C(NCC)SC1CC(=O)N(c2ccc(OCC)cc2)C1=O (centres unmarked),-6.72
5,O=C(COc1ccc(S(=O)(=O)NC2CCCC2)cc1)N1CCCCCC1,13.3
6,C=CC(=O)NC(NC(=O)C=C)c1ccc(Br)cc1,-0.848
7,CCCCn1ccnc1C,6.82
8,CCOC(=O)C(=CNc1nc2ccc(C(=O)OCC)cc2s1)C(=O)OCC,24.3
9,COc1ccccc1-c1nnc(SCC(=O)Nc2c(Cl)cccc2Cl)o1,-13.3
10,CCC(C)[C@@H](C(=O)N1CCNCC1)n1cc(CCCN=C(N)N)nn1.Cl (some centres unmarked),11.3
11,CCOC(=O)C1CCCN(S(=O)(=O)c2ccc3c4c(cccc24)C(=O)N3CC)C1 (centres unmarked),-63.5
12,Cc1ccc(Nc2nc(C(=O)N3CCC(C(=O)N4CCN(C)CC4)CC3)cs2)cc1,9.59
13,O=C(CCn1cccc1)NC1CCCc2ccccc21 (centres unmarked),4.95
14,O=C1CC2(CCCCC2)Oc2ccc(O)cc21,-11.8
15,CCN(CCn1cccn1)C(=O)c1cc(COc2ccc(F)cc2Cl)on1,-15.4
16,O=C(CSc1nnc(-c2cccnc2)n1C1CCCCC1)NC1CCCC1,-8.3
17,CCOC(=O)c1cc(-c2cccc(C(F)(F)F)c2)nc2nc(SC)[nH]c(=O)c12,-33.8
18,CCOc1ccccc1CN1CCNC(=O)C1CC(=O)N(C)CCC1CCOCC1 (centres unmarked),19.2
19,Cc1ccc(NC(=O)c2oc3ccccc3c2NC(=O)C2CC2)cc1,-4.63
20,O=C(O)c1ccc2c(c1)C(=O)/C(=C\c1ccco1)C2=O,2.95
21,Cc1cc(C)c(O)c(-c2cc(C(=O)Nc3ccc(S(=O)(=O)N4CCOCC4)cc3)[nH]n2)c1,-3.07
22,O=C(CCN1C(=O)c2ccccc2C1=O)NC(=S)Nc1ccccc1,3.56
23,COc1ccc(NC(=O)N2CCCc3ccccc32)cc1OC,12.3

row,SMILES,"hERG current change (%, negative = inhibition) at 10uM [%]"
1,CCN(CC)S(=O)(=O)c1ccc(N2CCOCC2)c(NC(=O)Cc2ccccc2)c1,-36.2
2,CCc1nnc(NC(=O)CSc2nnc(-c3ccc(O)cc3)n2C)s1,13.2
3,CCSCc1nnc(SCC(=O)Nc2nc3ccccc3s2)n1C,-11.1
4,CCOC(=O)C1=C(C)NC(=O)/C1=C\N(C)C,19
5,COC(=O)[C@@H]1[C@@H](C)N(Cc2ccccc2)C(=O)N[C@H]1c1cccc(C(F)(F)F)c1,2.85
6,O=C(Oc1c(Br)cc([N+](=O)[O-])cc1Br)c1cccnc1,16.7
7,CCC(C)c1ccc(O)c(N)c1 (centres unmarked),-2.96
8,CCC(=O)c1ccc(OCC(O)CN2CCN(S(=O)(=O)c3ccc(NC(C)=O)cc3)CC2)cc1 (centres unmarked),-20.5
9,O=C(Nc1ccc(F)cc1)Nc1ccc(Oc2ncnc3cc(Cl)ccc23)nc1,10.2
10,Cc1csc(NC(C)c2nc3cc(C(F)(F)F)ccc3n2CCCO)n1 (centres unmarked),-26.7
11,COc1ccc(-c2cc(C3CC3)nc3sc(C#N)c(N)c23)cc1,0.566
12,O=C(c1ccc2c(c1)ncn2C1CCCCCC1)N1CCC2(CC1)OCCO2,-2.37
13,O=C(c1ccc(Cl)cc1)c1cnc(Nc2ccccc2Cl)s1,-1.11
14,O=C(COc1cc(=O)n2c(n1)SCCC2)c1ccccc1,4.09
15,CCOCCc1nnc(N)s1,2.31
16,O=C(Nc1ccccc1N1CCCC1)C1CCN(S(=O)(=O)c2ccc(F)cc2)CC1,-0.0241
17,O=C(NC(Cc1ccccc1)C(=O)N1CCN(S(=O)(=O)c2ccccc2)CC1)c1ccccc1 (centres unmarked),-8.87
18,CCc1noc(C)c1C(=O)N1CCCC(C(=O)c2cc(F)ccc2OC)C1 (centres unmarked),18.6
19,NC(=O)Cn1c(=O)n(CCc2ccccc2)c(=O)c2c3c(sc21)CCCC3,-15
20,CCCCc1cc(=O)oc2cc(O)cc(O)c12,2.39

# From paper PMC4336329 (PLoS ONE, 2015)
